Measured values taken from PubChem BioAssay AID1347430 (National Center for Advancing Translational Sciences (NCATS), 2020).
Among all 91,000 compounds or so, about 130 (0.14%) were called active. Inconclusive means that the source gave no clear call. Such entries were picked first, then a sample of the others. Calls come from the whole dose curve; as a rule, active = well fitted inhibition curve with a large enough effect; inconclusive = small, poorly fitted or top-dose-only effect; inactive = flat fitted curve, though single readings scatter. A potency beside an inconclusive call is a rough fit, not a confirmed value.

The compounds below were run on Uracil-DNA glycosylase (assay: Primary qHTS assay for inhibitors of Activation Induced Cytidine Deaminase (AID): UDG Counterscreen signal). Conditions: FRET deamination/UDG coupled assay, UDG read, 4 h; activity change, negative = inhibition: at 115 µM (top of the series).
% is set by controls: 0 for no effect and ±100 for the full control effect; potency is the fitted concentration of half-maximal effect; tags give direction and shape of the fitted curve.
Note: nearly all actives have a fitted effect of over 65% in size.

| SMILES | Potency | activity change, negative = inhibition |
| --- | --- | --- |
| CCc1nc2sc3c(N4CCC(C)CC4)ncnc3c2c2c1CCCC2 | inconclusive: 100 µM [inhibitor, single point] | – |
| O=C(c1ccco1)N(Cc1cccs1)C1CC1 | – | inactive: -0.457% |
| Cc1cc(-n2c(C)nc3ccccc3c2=O)ccc1NC(=O)c1ccc(C)c([N+](=O)[O-])c1 | inconclusive: 100 µM [inhibitor, single point] | – |
| Cc1ccc(CN2CCC(CNC(=O)c3cc4ccc5cccnc5c4[nH]3)CC2)cc1 | inconclusive: 89.1 µM [inhibitor, single point] | – |
| O=C(Nc1ccc2nc(SCc3ccccc3)sc2c1)c1cccc(F)c1 | inconclusive: 100 µM [inhibitor, single point] | – |
| COc1ccc(Oc2nc3c(c(=O)n(C)c(=O)n3C)n2Cc2ccccc2Cl)cc1 | inconclusive: 3.16 µM [inhibitor, partial curve, poor fit] | – |
| Cc1ccc(-c2cc(C)c(C)cc2C)nc1 | – | inactive: 6.24% |
| CC(C)(C)c1ccc(C(=O)NCC(c2cccs2)S(=O)(=O)c2ccc(F)cc2)cc1 (stereo unspecified) | active: 79.4 µM | – |
| COc1ccc(-c2c3c(nc4sc(C(=O)Nc5ccc(F)cc5)c(N)c24)CC(C)(C)CC3=O)cc1 | inconclusive: 35.5 µM [inhibitor, partial curve, poor fit] | – |
| Cc1cc2c(cc1S(=O)(=O)CCC(=O)NC1CCC(C)CC1)OCC(=O)N2 (stereo unspecified) | inconclusive: 89.1 µM [inhibitor, single point] | – |
| O=C(CC1C(=O)N(c2ccc(F)cc2)C(=O)N1Cc1ccc2c(c1)OCO2)Nc1ccc(F)cc1 (stereo unspecified) | inconclusive: 89.1 µM [inhibitor, single point] | – |
| CCN(c1ncnc2c1cnn2-c1cc(Cl)ccc1C)C1CCCCC1 | inconclusive: 89.1 µM [inhibitor, single point] | – |
| CSc1ccc(CCNC(=O)c2sc3ncccc3c2-n2cccc2)cc1 | inconclusive: 50.1 µM [inhibitor, partial curve, poor fit] | – |
| CCC1CCCCN1CCCNC(=O)c1cc2c(Cl)nc3ccc(C)cc3c2s1 (stereo unspecified) | inconclusive: 89.1 µM [inhibitor, single point] | – |
| CCOC(=O)c1c(C)[nH]c(C)c1S(=O)(=O)N1CCCC(C(=O)N2CCN(c3ccc(Cl)cc3)CC2)C1 (stereo unspecified) | inconclusive: 89.1 µM [inhibitor, single point] | – |
| Cn1c(=O)c2c(-c3ccccc3Br)n(C(C)(C)C)cc2n(C)c1=O | inconclusive: 56.2 µM [inhibitor, partial curve, poor fit] | – |
| CCCCN(CCCC)CC(C)(C)NS(=O)(=O)c1ccccc1 | inconclusive: 89.1 µM [inhibitor, single point] | – |
| CCCN(CCC)c1nc(-c2ccccc2F)nc2ccccc12 | inconclusive: 89.1 µM [inhibitor, single point] | – |
| COc1cc(NC(=O)C2CCCN(S(=O)(=O)c3ccc4c(c3)CCCC(=O)N4)C2)cc(OC)c1 (stereo unspecified) | – | inactive: 4.15% |
| N#Cc1c(N)sc2c1CCc1ccccc1-2 | inconclusive: 50.1 µM [inhibitor, partial curve, poor fit] | – |
| CC(=O)c1ccc(NC(=O)c2nc(-c3ccccc3)n(-c3ccc(Cl)cc3)n2)cc1 | inconclusive: 89.1 µM [inhibitor, single point] | – |

| SMILES | Potency | activity change, negative = inhibition |
| --- | --- | --- |
| CCOC(=O)c1cc2c(=O)n3ccccc3nc2n(CCOC)c1=NC(=O)C(C)(C)Oc1ccc(Cl)cc1 | inconclusive: 89.1 µM [inhibitor, single point] | – |
| COc1ccc(NC(=O)Cn2c(=O)oc3cc(S(=O)(=O)NCc4ccccc4)ccc32)c(OC)c1 | inconclusive: 100 µM [inhibitor, single point] | – |
| CC(=O)N1CCCC1c1nc2ccccc2n1Cc1cccc(Cl)c1 (stereo unspecified) | inconclusive: 89.1 µM [inhibitor, partial curve, poor fit] | – |
| COc1cc(NC(=O)CC(c2ccc(C)cc2)N2Cc3ccccc3C2=O)cc(OC)c1 (stereo unspecified) | – | inactive: -23.6% |
| CCCCc1nc(CN2CCN(c3cccc(F)c3C#N)CC2)no1 | active: 89.1 µM | – |
| COc1ccccc1CCNC(=O)C(=O)NCC(c1cccs1)S(=O)(=O)c1ccc(C)cc1 (stereo unspecified) | inconclusive: 100 µM [inhibitor, single point] | – |
| Cc1oc2cc(OCC(=O)NCCCOC(C)C)ccc2c(=O)c1-c1ccccc1 | inconclusive: 89.1 µM [inhibitor, single point] | – |
| COc1ccc(C)cc1-n1nnnc1SCc1nc(C(C)C)no1 | inconclusive: 39.8 µM [inhibitor, partial curve, poor fit] | – |
| COc1ccc(C)cc1NC(=O)COCc1cc(-c2cccs2)on1 | inconclusive: 89.1 µM [inhibitor, single point] | – |
| Cc1nn2c(C)c(C(=O)N3CCN(c4ccccc4)CC3)cnc2c1-c1ccccc1 | inconclusive: 89.1 µM [inhibitor, single point] | – |
| Cc1ccc(/C=N/Nc2cc(C)c3ccccc3n2)s1 | – | inactive: -8.38% |
| O=C(NCc1ccc(CN2CCCCC2)cc1)c1ccc(C(F)(F)F)nc1 | – | inactive: -2.87% |
| CCn1nc(C(=O)OCC(=O)Nc2ccc(Cl)c(C(F)(F)F)c2)c2ccccc2c1=O | inconclusive: 89.1 µM [inhibitor, single point] | – |
| COc1ccc(NC(=O)CSC2=Nc3ccccc3C3=NC(CCC(=O)NCCc4ccccc4)C(=O)N23)c(OC)c1 (stereo unspecified) | inconclusive: 79.4 µM [inhibitor, single point] | – |
| Cc1ccc(-c2nc3ccccc3s2)cc1S(=O)(=O)N1CCCC1 | inconclusive: 89.1 µM [inhibitor, single point] | – |
| O=C(Nc1ccon1)c1sc2cccc(Br)c2c1Cl | – | inactive: -1.07% |
| CCOc1ccc(-n2c(=O)c3c(C)c(C)sc3n(Cc3cc(=O)n4cc(Cl)ccc4n3)c2=O)cc1 | inconclusive: 28.2 µM [inhibitor, partial curve, poor fit] | – |
| COc1ccccc1C(=O)Nc1nc2nc(C)c(Cc3ccccc3)c(=O)n2[nH]1 | – | inactive: -1.45% |
| CCOc1ccc(CNC(=O)C2CCN(S(=O)(=O)N(CC(C)C)CC(C)C)CC2)cc1OC | – | inactive: 3.53% |
| CCCCC(=O)OC1=C(C(=O)c2ccccc2)N(CC)S(=O)(=O)c2ccccc21 | inconclusive: 100 µM [inhibitor, single point] | – |
